PubChem BioAssay AID179 (DTP/NCI, 2004)
The source holds more than one record for some entries. Only these are listed.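 Rule for the calls: active = compounds giving half or more protection of infected cells from virus-caused growth loss, again on retest; inactive = the rest.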 There may be further records. The values listed for one entry are repeats in other runs, samples, wells, individuals or studies. A tag in brackets gives the origin of a value. The letters are not those of the source and start again with each entry.

Test system: CEM cells HIV-1 protection, formazan growth assay
Assay: NCI AIDS Antiviral Assay
Details: for IC50: measured here: growth of uninfected CEM cells
Method in brief: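 Category rules: moderately active means at least 50% protection on retest, and confirmed active means 100% protection reproducibly. The underlying data came from a formazan growth assay in HIV-1-infected CEM cells.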

Row | SMILES | outcome | IC50
1 | CC1=C/C(=C(\c2cc(C)c(O)c(C(=O)O)c2)c2c(Cl)ccc(S(=O)(=O)O)c2Cl)C=C(C(=O)O)C1=O | active [sample A] and inactive [sample B] | 
2 | NC1=C(Cl)C(=O)c2ccccc2C1=O |  | 115 µM [sample A] and 11.5 µM [sample B]
3 | COc1nc(N)c(N=CC(OC(C)=O)C(OC(C)=O)C(COC(C)=O)OC(C)=O)c(=O)n1C (stereo not given) |  | > 200 µM, 141 µM, 170 µM, 174 µM, 182 µM [separate samples]
4 | CC(=O)c1c(O)c(C)c(O)c2c1OC1=CC(=O)C(C(C)=O)C(=O)C12C (stereo not given) |  | > 10.5 µM [sample A] and 11.5 µM [sample B] and > 200 µM [sample C]
5 | COc1ccc(NC(=S)N=Nc2c(O)[nH]c3ccccc23)cc1 |  | 4.27 µM [sample A] and 120 µM [sample B]
